Reference: PMC3646547 (Nature communications, 2012)

Assays:
crystal structure = molecular target: the molecule itself; test: crystal structure
FANCM^661-800 = molecular target: T1, FANCM^661-800 (human, UniProt Q8IYD8 661-800); test: crystal structure
T1 sequence (looked up): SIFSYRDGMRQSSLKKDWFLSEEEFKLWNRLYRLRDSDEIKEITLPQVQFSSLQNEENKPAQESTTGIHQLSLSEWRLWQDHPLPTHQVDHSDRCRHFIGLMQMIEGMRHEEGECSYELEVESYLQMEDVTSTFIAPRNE

- binding result (FANCM^661-800): binds
B1: MHF1^[…] (SeMet derivative) (domain or fragment)
chain: not shown
modifications: selenomethionine (SeMet-derivative protein)
- binding result (crystal structure): binds
